Data from PubChem BioAssay AID686978 (National Center for Advancing Translational Sciences (NCATS), 2013).
“And” between values parts separate entries of the source, which are not always exact repeats. Identical values can stand only once. The whole screen tested about 420,000 compounds, of which about 64,000 (15%) were called active. Inconclusive results, whose numbers are uncertain, are shown with a selection of clear calls. Calls follow the shape of the dose curve; as a rule, active = well fitted inhibition curve with a large enough effect; inconclusive = small, poorly fitted or top-dose-only effect; inactive = flat fitted curve, though single readings scatter. Potencies of inconclusive entries are left out as doubtful fits. Some structures have more than one record in an assay (separate samples or runs), and their calls can disagree.

Assay: qHTS for Inhibitors of human tyrosyl-DNA phosphodiesterase 1 (TDP1): qHTS in cells in absence of CPT; also: nearly all actives have a fitted effect of over 55% in size
Conditions: DT40 Tdp1-/- hTDP1 cells, no CPT, ATP luminescence, 48 h; activity change, negative = growth inhibition: at 46.2 µM (top of the series) unless noted
Procedure, shortened: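 Growth kinetics read by CellTiter-Glo luminescence after ≥48 hr at 37 °C. Cells: DT40 Tdp1-/- stably carrying human TDP1, 400 per well, compound exposure in the absence of CPT (DMSO vehicle).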
% is scaled to controls: 0 for no effect and ±100 for the full control effect; potency is read from the fitted curve at half-maximal effect; tags tell the direction and shape of the fitted curve.

Row | SMILES | Potency | activity change, negative = growth inhibition
1 | C[C@]12CC[C@H](OS(=O)(=O)O)CC1=CC[C@@H]1[C@@H]2CC[C@]2(C)C(=O)CC[C@@H]12 | inactive | –
2 | NCCCCN=C(N)N | inactive and active: 6.68 µM | –
3 | CC1=CC(O)C(O)C2(C)C1CC1OC(=O)CC3C(C)C(O)C(=O)C2C13CO (stereo not drawn) | inconclusive [inhibitor, single point] | –
4 | CC(O)CNc1ccc([N+](=O)[O-])c2cccnc12 (stereo not drawn) | inconclusive [inhibitor, single point] | –
5 | CCn1cc(C(=O)c2ccccc2)c2ccccc21 | inactive | –
6 | COP(=S)(OC)Oc1ccc([N+](=O)[O-])cc1 | active: 2.91 µM | –
7 | O=c1oc2ccccc2c(O)c1C(CC(O)c1ccc(-c2ccc(Br)cc2)cc1)c1ccccc1 (stereo not drawn) | inconclusive [inhibitor, single point] | –
8 | CC(C)c1ccc(Cc2cn3cc(-c4cc5ccccc5oc4=O)nc3s2)cc1 | active: 0.184 µM | –
9 | O=C(NCc1ccccc1)c1cccn(Cc2ccccc2)c1=O | inconclusive [inhibitor, single point] | –
10 | CCOc1ccc(CN2CCCC(C(=O)c3ccccc3OC)C2)cc1 (stereo not drawn) | inconclusive [inhibitor, single point] | –
11 | CCCN(C/C=C/I)C1CCc2ccc(O)cc2C1 (stereo not drawn) | active: 20.6 µM | –
12 | COc1ccc(C(O)C(C)NC(C)C(O)c2ccc(OC)cc2)cc1 (stereo not drawn) | inactive | –
13 | Cc1cccc(Cn2cc(C=O)c3ccccc32)c1 | inconclusive [inhibitor, single point] | –
14 | Cc1c(C(=O)c2cccc3ccccc23)c2cccc3c2n1[C@H](CN1CCOCC1)CO3 | active: 4.61 µM | inactive: -15.4% [at 4.12 µM]
15 | O=S1(=O)N(Cc2ccccc2)CCCN1Cc1ccc(F)cc1Cl | inconclusive [inhibitor, single point] | –
16 | NCCCC(=O)OC1N=C(c2ccccc2Cl)c2cc(Br)ccc2NC1=O (stereo not drawn) | inconclusive [inhibitor, single point] | –
17 | O=C(Nc1cc2c(cc1C(=O)c1ccc(Br)cc1)OCCO2)c1ccc(Cl)cc1 | inconclusive [inhibitor, single point] | –
18 | COc1ccc(-n2c(O)c(/C=C3\C=Nc4ccc(Br)cc43)c(=O)[nH]c2=O)cc1 | inconclusive [inhibitor, partial curve] | –
19 | O=c1[nH]c(=O)n(-c2cccc3ccccc23)c(O)c1/C=N/N1CCCCCC1 | inactive | –
20 | O=c1[nH]c(O)c(C=Nc2ccccc2Oc2ccccc2)c(=O)[nH]1 | inactive | –
21 | COc1ccc(CCNCc2c(OC)ccc3ccccc23)cc1 | active: 13 µM | –
22 | Cc1cc(OCc2nn[nH]n2)c2c3c(c(=O)oc2c1)CCC3 | inactive | –
23 | COC(=O)c1ccc(NC(=O)c2cccn(Cc3ccccc3C)c2=O)cc1 | inactive | –
24 | CC(=O)c1ccc(OC(NC(=O)Cc2ccccc2)C(Cl)(Cl)Cl)cc1 (stereo not drawn) | inactive | –

Row | SMILES | Potency | activity change, negative = growth inhibition
25 | Cc1cc(OC(=O)N2CCCCC2)c(C(C)C)cc1[N+](C)(C)C | – | inconclusive: -31.9% [inhibitor]
26 | CCC(CO)Nc1ccc([N+](=O)[O-])c2cccnc12 (stereo not drawn) | inconclusive [inhibitor, single point] | –
27 | CCOCCN1CCN(c2nnc3n2-c2ccc(Cl)cc2C(c2ccccc2Cl)=NC3)CC1 | inconclusive [inhibitor, single point] | –
28 | COc1cccc(NC(=O)CCc2nc(-c3ccc(C(C)(C)C)cc3)no2)c1 | inconclusive [inhibitor, partial curve] | –
29 | CC(=O)Nc1cccc(-c2ccnc3c2CC(C(=O)NCc2ccco2)O3)c1 (stereo not drawn) | active: 1.64 µM | –
30 | CC(C)C(=O)c1cn(Cc2ccccc2C#N)c2ccccc12 | inconclusive [inhibitor, single point] | –
31 | CCOC(=O)[C@]12Cc3ccccc3[C@H]1N(Cc1ccccc1)C(=O)c1cc(F)c(F)cc12 | active: 23.1 µM | –
32 | CCN(CC)C(=O)Oc1ccc(NC(=O)N2CCOCC2)cc1 | inactive | –
33 | COc1ccc(NC(=O)c2ccco2)cc1NC(=O)COc1cccc(C)c1C | inconclusive [inhibitor, full curve] | –
34 | O=C(Nc1nc2c(Cl)cccc2s1)c1ccc(S(=O)(=O)N2CCc3ccccc32)cc1 | inconclusive [inhibitor, single point] | –
35 | O=C(Nc1ccc(Oc2ccccc2)cc1)c1ccc(F)c(S(=O)(=O)N2CCN(c3cccc(Cl)c3)CC2)c1 | active: 3.66 µM | –
36 | COc1ccc(/C=C/C(=O)Nc2ccc(C)cc2)cc1 | inconclusive [inhibitor, single point] | –
37 | COC(=O)C1=C(C(=O)OC)C2c3ccccc3C1c1ccccc12 | inconclusive [inhibitor, partial curve] | –
38 | COc1ccc(-n2c(-c3ccc(C)cc3)nc3ccccc3c2=O)cc1 | active: 14.6 µM | –
39 | Clc1ccc(CO/N=C(\Cn2ccnc2)c2ccc(Cl)cc2Cl)c(Cl)c1 | inconclusive [inhibitor, single point] | –
40 | COC(=O)C1=C(c2ccc(S(C)(=O)=O)cc2)C[C@@H]2CC[C@H]1N2C(=O)NC(C)C | inactive | –
41 | O=P(Nc1cccnc1)(Oc1ccccc1)Oc1ccccc1 | inactive | –
42 | O=C(N=Nc1c(O)[nH]c(=O)[nH]c1=O)C1COc2cc3ccccc3cc2O1 (stereo not drawn) | inconclusive [inhibitor, single point] | –
43 | COc1ccccc1-n1c(Cc2ccccc2)nc2ccccc2c1=O | inactive | –
44 | N#CC1C(C#N)C2CCC1C1C2N1c1ccccc1 (stereo not drawn) | inactive | –
45 | Cc1ccc(S(=O)(=O)CC(=O)c2cc(C)c(OC(=O)N(C)C)c(C)c2)cc1 | inconclusive [inhibitor, single point] | –
46 | CN(C)C(=O)Oc1ccc2c(c1)O/C(=C\c1ccc(Cl)cc1)C2=O | inconclusive [inhibitor, single point] | –
47 | Cc1ccc(OCC(=O)N2CCN(C3CCC(c4ccccc4)CC3)CC2)cc1 (stereo not drawn) | inconclusive [inhibitor, single point] | –
